From ChEMBL document CHEMBL5606458, “ASAP - ZIKV NS2B-NS3 protease fluorescence single point” (2024) come the findings set out here.

Among all 2,700 compounds or so, about 160 (5.9%) showed an effect of 50% or more. The list shows a part of the results.

This assay addresses Nonstructural protein 3 (Zika virus) (UniProt A0A024AXB9).
The mark [1] stands for this setting: PRVABC59, Concentration 15.0 uM, Number of replicates 1.0.
The mark [2] stands for this setting: PRVABC59, Concentration 10.0 uM, Number of replicates 1.0.
[3] abbreviates: PRVABC59, Concentration 50.0 uM, Number of replicates 1.0.

Chain of UniProt A0A024AXB9 (A0A024AXB9 as listed by the source): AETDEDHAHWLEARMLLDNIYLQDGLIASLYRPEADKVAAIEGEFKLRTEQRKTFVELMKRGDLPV

Turning to `CCc1nc(CNC(=O)[C@]2(c3ccc(F)cc3)CCCNC2)n[nH]1`, the inhibition (PRVABC59, Concentration 49.5 uM, Number of replicates 2.0, Standard deviation 1.2409927756118981 %) was -0.431%; the inhibition (PRVABC59, Concentration 99.01 uM, Number of replicates 2.0, Standard deviation 1.3083535020923887 %) was -0.79%; the inhibition (PRVABC59, Concentration 198.0 uM, Number of replicates 2.0, Standard deviation 1.945690126836199 %) is -1.8%.

Consider `O=C(O)c1cccc(NC(=O)c2cccs2)c1`, for which the inhibition was found to be 0.258% (PRVABC59, Concentration 49.5 uM, Number of replicates 2.0, Standard deviation 0.016604109219079045 %); 3.27% (PRVABC59, Concentration 99.01 uM, Number of replicates 2.0, Standard deviation 0.9443586407123139 %); 6.47% (PRVABC59, Concentration 198.0 uM, Number of replicates 2.0, Standard deviation 0.8281299393990333 %). Consider `O=C(Nc1ccc2c(c1)C(=O)NC2=O)c1cc(Cl)ccc1NS(=O)(=O)c1ccc(Oc2ccccc2Cl)cc1`, for which the inhibition under setting [1] was 25.3%. With `CNC(=O)c1ccc2n1CCN(S(=O)(=O)c1cc(-c3ccccc3)no1)[C@@H]2C`, the inhibition was 4.35% (PRVABC59, Concentration 49.5 uM, Number of replicates 2.0, Standard deviation 0.4667368978079452 %); 1.78% (PRVABC59, Concentration 99.01 uM, Number of replicates 2.0, Standard deviation 0.4323885649707189 %); -4.74% (PRVABC59, Concentration 198.0 uM, Number of replicates 2.0, Standard deviation 1.0122742409901626 %).

For `O=C(NCC1(c2ccncc2F)CCC1)[C@@]1(c2ccc(F)cc2)CCCNC1`, the inhibition was 0.26% (PRVABC59, Concentration 49.5 uM, Number of replicates 2.0, Standard deviation 0.41622446358173754 %); 2.25% (PRVABC59, Concentration 99.01 uM, Number of replicates 2.0, Standard deviation 0.6101932219025366 %); 3.53% (PRVABC59, Concentration 198.0 uM, Number of replicates 2.0, Standard deviation 0.24650191266214933 %). In the case of `COc1cc(CNC(=O)c2cc(Cl)ccc2NS(=O)(=O)c2ccc(Oc3ccccc3Cl)cc2)cc(OC)c1`, the inhibition under setting [1] was found to be 28%.

Consider `O=Cc1ccc(N2CCC(C(=O)NCc3cccc(-n4cccn4)c3)CC2)cc1`, for which the inhibition under setting [2] was found to be 24.1%.

As for `Cc1cc(CO)c2cccc(Cc3cccc(C(=O)N4CCC(C(=O)O)CC4)c3)c2n1`, the inhibition reads like this: (PRVABC59, Concentration 49.95 uM, Number of replicates 2.0, Standard deviation 0.6921367263576601 %) -3.78%; (PRVABC59, Concentration 99.9 uM, Number of replicates 2.0, Standard deviation 0.04719115192807187 %) -2.12%.

As to `COc1cc(C(=O)O)nc(N2CCN(C(=O)OC(C)(C)C)CC2)n1`, the inhibition is -1.92% (PRVABC59, Concentration 49.5 uM, Number of replicates 2.0, Standard deviation 2.4331094631226677 %); -0.266% (PRVABC59, Concentration 99.01 uM, Number of replicates 2.0, Standard deviation 1.8290127301736714 %); 3.66% (PRVABC59, Concentration 198.0 uM, Number of replicates 2.0, Standard deviation 0.8591132678511498 %). For `CCCC[C@@H](CC)CN(C[C@@H](CC)CCCC)C(=O)c1cc(Cl)ccc1NS(=O)(=O)c1ccc(Oc2ccccc2Cl)cc1`, the inhibition under setting [1] came out at 15.5%. Same read-out and setting: for `CC(C)(C)c1cc(NC(=O)c2cc(Cl)ccc2NS(=O)(=O)c2ccc(Oc3ccccc3Cl)cc2)n(-c2ccccc2)n1` the value was 28.4%. With `c1ccc(-n2cc(CN3CCC(c4c[nH]c5cccnc45)CC3)cn2)nc1`, the inhibition runs as follows: (PRVABC59, Concentration 49.5 uM, Number of replicates 2.0, Standard deviation 0.39150698592554617 %) 0.383%; (PRVABC59, Concentration 99.01 uM, Number of replicates 2.0, Standard deviation 1.6352946876495957 %) 4.21%; (PRVABC59, Concentration 198.0 uM, Number of replicates 2.0, Standard deviation 1.1112775253170408 %) 9.97%. As for `O=C(NCc1cncc(Br)c1)c1cc(Cl)ccc1NS(=O)(=O)c1ccc(Oc2ccccc2Cl)cc1`, under setting [1], the inhibition came out at 42.6%. In the case of `Cc1cc(CO)c2cccc(Cc3cccc(NC(=O)[C@@H](N)CCN)c3)c2n1`, the inhibition runs as follows: (PRVABC59, Concentration 49.95 uM, Number of replicates 2.0, Standard deviation 2.8196733928978714 %) -9.34%; (PRVABC59, Concentration 99.9 uM, Number of replicates 2.0, Standard deviation 2.5244723140679306 %) 3.67%.

With `O=C(NCCn1ncc2ccccc2c1=O)c1cc(Cl)ccc1NS(=O)(=O)c1ccc(Oc2ccccc2Cl)cc1`, the inhibition under setting [1] is 21.4%. Take `CN(C)CCNC(=O)c1ccc(N2CCNCC2)nc1`: the inhibition by setting is: (PRVABC59, Concentration 49.5 uM, Number of replicates 2.0, Standard deviation 7.0436202668286345 %) -2.56%; (PRVABC59, Concentration 99.01 uM, Number of replicates 2.0, Standard deviation 7.410877958096317 %) 0.074%; (PRVABC59, Concentration 198.0 uM, Number of replicates 2.0, Standard deviation 5.611314242501571 %) 7.79%.

In the case of `COc1ccc(CNC(=O)c2cc(Cl)ccc2NS(=O)(=O)c2ccc(Oc3ccccc3Cl)cc2)c(Cl)c1`, under setting [1], the inhibition is 29.1%. Consider `CCN(CC)C1CCN(C(=O)c2cc(Cl)ccc2NS(=O)(=O)c2ccc(Oc3ccccc3Cl)cc2)CC1`, for which the inhibition under setting [1] was determined as 7.01%. For `CC(=O)Nc1ccc(NC(=O)C2CCN(c3ccc(C=O)cc3)CC2)c(C(F)(F)F)c1`, the inhibition under setting [3] stood at 25.8%. With `Cc1cnc(NC(=O)c2cc(Cl)ccc2NS(=O)(=O)c2ccc(Oc3ccccc3Cl)cc2)c([N+](=O)[O-])c1`, under setting [1], the inhibition was found to be 21.8%. As for `CC(C)Nc1nc2cc(NC(=O)[C@@H](NC(=O)OC(C)(C)C)c3ccccc3)ccc2[nH]1`, the inhibition is, setting by setting: (PRVABC59, Concentration 49.5 uM, Number of replicates 2.0, Standard deviation 2.4721512163265067 %) -4.72%; (PRVABC59, Concentration 99.01 uM, Number of replicates 2.0, Standard deviation 1.6891710041010715 %) -5.09%; (PRVABC59, Concentration 198.0 uM, Number of replicates 2.0, Standard deviation 1.579871413270376 %) -4.79%. Regarding `Cc1cc(C)n(CCCNC(=O)C2CCN(c3ccc(C=O)cc3)CC2)n1`, the inhibition under setting [3] came out at 18%. For the compound `COc1cccc(C(=O)N2CCN(C(=O)c3cc(Cl)ccc3NS(=O)(=O)c3ccc(Oc4ccccc4Cl)cc3)CC2)c1`, the inhibition under setting [1] is 15.9%.

On to `CC(C)(CO)NC(=O)c1cc(Cl)cc(NC(=O)Cc2cccc(N3CCOCC3)c2)c1`, for which the inhibition is -2.52% (PRVABC59, Concentration 49.5 uM, Number of replicates 2.0, Standard deviation 3.0522593855592395 %); -0.793% (PRVABC59, Concentration 99.01 uM, Number of replicates 2.0, Standard deviation 3.368926317951112 %); 0.389% (PRVABC59, Concentration 198.0 uM, Number of replicates 2.0, Standard deviation 2.506775358140388 %). Turning to `Cc1cnccc1NC(=O)c1cnn2cc[nH]c(=O)c12`, the inhibition by setting is: (PRVABC59, Concentration 49.5 uM, Number of replicates 2.0, Standard deviation 3.1855058832148018 %) -2.33%; (PRVABC59, Concentration 99.01 uM, Number of replicates 2.0, Standard deviation 1.1475735667568987 %) -0.754%; (PRVABC59, Concentration 198.0 uM, Number of replicates 2.0, Standard deviation 1.9515946474314843 %) 2.12%.

With `O=C(N[C@H]1CCC[C@@H]1OCc1ccccc1)c1cc(Cl)ccc1NS(=O)(=O)c1ccc(Oc2ccccc2Cl)cc1`, under setting [1], the inhibition was found to be 23.2%. Consider `CCn1ncc(Cc2cc(OC)nc(N3CCNCC3)n2)c1F`, for which the inhibition is, setting by setting: (PRVABC59, Concentration 49.5 uM, Number of replicates 2.0, Standard deviation 0.4929738167681589 %) -2.24%; (PRVABC59, Concentration 99.01 uM, Number of replicates 2.0, Standard deviation 1.24071987476779 %) -1.01%; (PRVABC59, Concentration 198.0 uM, Number of replicates 2.0, Standard deviation 1.039801955918316 %) 0.707%. With `Cc1cn(-c2cc(NC(=O)C3CCN(c4ccc(C=O)cc4)CC3)cc(C(F)(F)F)c2)cn1`, under setting [3], the inhibition was 26.3%.

For the compound `NCc1ccc(C[C@H](NC(=O)c2ccccc2)C(=O)Nc2cccc(C(N)=O)c2)cc1`, the inhibition is, setting by setting: (PRVABC59, Concentration 49.5 uM, Number of replicates 2.0, Standard deviation 1.1625470591881177 %) 1.5%; (PRVABC59, Concentration 99.01 uM, Number of replicates 2.0, Standard deviation 0.3259107899415248 %) 6.8%; (PRVABC59, Concentration 198.0 uM, Number of replicates 2.0, Standard deviation 1.1645342830954064 %) 14.4%. For the compound `O=C(c1cc(Cl)ccc1NS(=O)(=O)c1ccc(Oc2ccccc2Cl)cc1)N(Cc1ccc2c(c1)OCO2)C1CCCC1`, the inhibition under setting [1] was 23.2%. Regarding `O=Cc1ccc(N2CCC(C(=O)NCc3coc(-c4ccccc4)n3)CC2)cc1`, under setting [2], the inhibition came out at 8.56%. Turning to `O=C(c1cc(Cl)ccc1NS(=O)(=O)c1ccc(Oc2ccccc2Cl)cc1)N1CCC(O)(c2ccc(Cl)cc2)CC1`, the inhibition under setting [1] turned out to be 26.1%. For `Cc1ccc(CNC(=O)C2CCN(c3ccc(C=O)cc3)CC2)c(F)c1F`, the inhibition under setting [2] was 9.65%. In the case of `CN(Cc1ccccc1NC(=O)c1cc(Cl)ccc1NS(=O)(=O)c1ccc(Oc2ccccc2Cl)cc1)C1CCCCC1`, under setting [1], the inhibition is -4.47%. The same measure, in the same setting: for `O=C(Nc1ccc(SC(F)(F)F)cc1)c1cc(Cl)ccc1NS(=O)(=O)c1ccc(Oc2ccccc2Cl)cc1` the value was 45.3%. With `O=Cc1ccc(N2CCC(C(=O)Nc3c(Cl)cncc3Cl)CC2)cc1`, the inhibition under setting [3] is 23%. As for `OB1OCc2ccc(N3CC[C@@H](O)C3)cc21`, the inhibition came out at 2.1% (PRVABC59, Concentration 99.5 uM, Number of replicates 2.0, Standard deviation 3.8840673539872728 %) and 10.3% (PRVABC59, Concentration 198.0 uM, Number of replicates 2.0, Standard deviation 4.077392335002136 %).
